{
  "source": "PubChem BioAssay AID463173",
  "about": "(ICCB-Longwood Screening Facility, Harvard Medical School, 2010)",
  "note": "Screen size: about 52,000 compounds; about 4,300 (8.3%) were called active. Cut-off read from the data, not from the text of the source: active = survival mostly below about 52% (no sharp cut-off); inactive = mostly above about 56%. The list shows a part of the results.",
  "data": [
    {"system": "DeltatarO mutant", "test": "S. aureus survival, RN4220 and DeltatarO strains – OD600, teichoic acid synthesis inhibitors, primary screen (AID 463173)", "conditions": "S. aureus RN4220 wild type/DeltatarO growth, OD600, 18 h, stronger effect = lower value, screened at 18.75 µg/mL (by protocol)", "values": [
      {"molecule": "COc1ccccc1-c1cc(C(=O)Nc2cc(OC)c(OC)c(OC)c2)no1", "survival": "active: 25%"},
      {"molecule": "Cc1ccc(C)c(-n2c(SCC(=O)NCC(C)C)nnc2-c2cccnc2)c1", "survival": "inactive: 107%"},
      {"molecule": "COc1cc(Cc2ccc(N)c(OC)c2)ccc1N", "survival": "inactive: 101%"},
      {"molecule": "Cc1ccc(CNC(=O)c2ccc3c(c2)nc2n3CCOC2)cc1", "survival": "inactive: 72%"},
      {"molecule": "Cc1ccc(-n2nc(C)c3c(C(=O)NCCc4ccccc4)cc(C)nc32)cc1", "survival": "inactive: 70%"},
      {"molecule": "COc1ccc(C(C)=O)cc1CSc1nc(NCCc2ccccc2)c2ccccc2n1", "survival": "inactive: 60%"},
      {"molecule": "COc1ccc(C(=O)NNc2ncnc3c2cnn3-c2cccc(Cl)c2)cc1OC", "survival": "inactive: 98%"},
      {"molecule": "COc1ccc(C(=O)c2sc3nc(-c4ccc(F)cc4)ccc3c2N)cc1", "survival": "inactive: 81%"},
      {"molecule": "COc1ccc(-c2nc(Cn3c(SCc4cccc(C(F)(F)F)c4)nc4cccnc43)c(C)o2)cc1OC", "survival": "inactive: 93%"},
      {"molecule": "CC1=C(C(=O)Nc2ccc(C)cc2C)C(c2ccc(O)cc2)n2nc(SCC(=O)c3ccc(C)cc3)nc2N1", "note": "(stereo not given)", "survival": "inactive: 125%"},
      {"molecule": "Cn1c(Nc2ccc(Cl)cc2)cc(=O)n(C)c1=O", "survival": "inactive: 93%"},
      {"molecule": "COc1ccc(-c2nn3c(=O)cc(CN4CCN(S(=O)(=O)c5ccc(C)cc5)CC4)nc3s2)cc1", "survival": "inactive: 94%"},
      {"molecule": "CC(O)CN(N)C1=NS(=O)(=O)c2ccccc21", "note": "(stereo not given)", "survival": "inactive: 108%"},
      {"molecule": "COc1ccc(OC)c(CNC(=O)C2CCCCN2S(=O)(=O)c2ccc(F)cc2)c1", "note": "(stereo not given)", "survival": "inactive: 58%"},
      {"molecule": "COc1ccc(C(=O)Nc2ccc(S(=O)(=O)N(Cc3ccccc3)c3ccccc3)cc2)cc1", "survival": "inactive: 75%"},
      {"molecule": "Cc1cc(OCC(O)CN2CCN(c3cccc(Cl)c3)CC2)ccc1Cl", "note": "(stereo not given)", "survival": "active: -1%"},
      {"molecule": "COc1ccc(S(=O)(=O)Nc2cc3c(C(=O)OC(C)C)c(C)oc3c3ccccc23)cc1", "survival": "active: 38%"},
      {"molecule": "COc1ccc(CNC(=O)CN2C(=O)CCn3nc(-c4ccccc4)cc32)c(OC)c1", "survival": "inactive: 69%"},
      {"molecule": "CC(CCc1ccccc1)NC(=O)CSc1n[nH]c(-c2ccc(F)cc2)n1", "note": "(stereo not given)", "survival": "inactive: 126%"},
      {"molecule": "COc1ccc(N2C(=O)Cc3cc(OC)c(OC)cc3C2c2ccc(F)cc2)cc1", "note": "(stereo not given)", "survival": "inactive: 72%"},
      {"molecule": "CC12CC(C(C#N)=C(N)N1)c1ccccc1O2", "note": "(stereo not given)", "survival": "inactive: 100%"},
      {"molecule": "Cc1cccc(Cn2cc(C(=O)Nc3cc(F)ccc3F)ccc2=O)c1", "survival": "inactive: 74%"},
      {"molecule": "CCN(CC)C(=O)Cn1cnc2ccccc2c1=O", "survival": "inactive: 99%"},
      {"molecule": "COc1ccc(-c2ccc(CCC(=O)O)n2-c2ccccc2O)cc1", "survival": "inactive: 124%"},
      {"molecule": "CCc1ccccc1NC(=O)N1CC(C)Sc2ccccc21", "note": "(stereo not given)", "survival": "inactive: 77%"},
      {"molecule": "COc1ccccc1NC(=O)CN1C(=O)c2ccccc2Sc2ccc(C(=O)N3CCCC3)cc21", "survival": "inactive: 64%"},
      {"molecule": "O=C(c1cc2ccccc2oc1=O)N1CCSC1c1ccco1", "note": "(stereo not given)", "survival": "inactive: 63%"},
      {"molecule": "CC(=O)c1ccc(NC(=O)c2nc(-c3ccccc3)n(-c3ccccc3)n2)cc1", "survival": "inactive: 87%"},
      {"molecule": "O=C(Nc1ccc(Br)cc1F)N1CC=C(c2c[nH]c3ccccc23)CC1", "survival": "inactive: 82%"},
      {"molecule": "CC(C)CC(OC(=O)c1cccs1)C(=O)NCc1cccs1", "note": "(stereo not given)", "survival": "inactive: 81%"},
      {"molecule": "CCCc1nn2c(=O)cc(COC(=O)c3ccc(NC(=O)C4CCCCC4)cc3)nc2s1", "survival": "inactive: 75%"},
      {"molecule": "CCc1nnc2c(Nc3ccc(N(CC)CC)cc3C)nc3ccccc3n12", "survival": "inactive: 109%"},
      {"molecule": "O=C(CSc1ncn[nH]1)N1CCCCC1", "survival": "inactive: 74%"},
      {"molecule": "Cc1cc(S(=O)(=O)Nc2ccc(C(=O)O)cc2)c(C)c(S(=O)(=O)c2ccc(Cl)cc2)c1", "survival": "inactive: 76%"},
      {"molecule": "COc1cccc(NS(=O)(=O)c2ccc3c(c2)N(C)C(=O)CC(=O)N3C)c1", "survival": "inactive: 72%"},
      {"molecule": "COc1ccc(C)cc1NC(=O)c1cn(C)c(=O)c2cc(OC)c(OC)cc12", "survival": "inactive: 72%"},
      {"molecule": "C=CCNC(=S)N1CCN(C(=S)NCC=C)CC1", "survival": "inactive: 71%"},
      {"molecule": "O=C(Cn1c(-c2ccccc2)noc1=O)Nc1ccc(N2CCCCCC2)cc1", "survival": "inactive: 88%"},
      {"molecule": "Cc1ccc(Cl)cc1N1CCN(S(=O)(=O)c2cc(Br)cc3c2N(C(=O)C2CC2)CC3)CC1", "survival": "inactive: 70%"},
      {"molecule": "COc1ccc(-c2nn(-c3ccccc3)cc2C2NC(=O)NC(C)=C2C(=O)OC(C)C)cc1Cl", "note": "(stereo not given)", "survival": "inactive: 106%"},
      {"molecule": "CC(C)(C)OC(=O)N1CCC(c2c(C(=O)N3CCCCC3)cnn2-c2ccccc2Cl)CC1", "survival": "inactive: 74%"},
      {"molecule": "Cn1c(=O)oc2cc(S(=O)(=O)CCC(=O)NCCc3ccc(Cl)cc3)ccc21", "survival": "inactive: 78%"},
      {"molecule": "COc1ccc(NCc2cc3cc4c(cc3n(CC(=O)Nc3ccc(C)c(C)c3)c2=O)OCO4)cc1", "survival": "inactive: 73%"},
      {"molecule": "COc1ccccc1OCc1nc(C#N)c(NCc2ccc(C)cc2)o1", "survival": "inactive: 83%"},
      {"molecule": "CCn1c(Cc2ccccc2)nnc1SCC(=O)N(C)C1CCCCC1", "survival": "inactive: 84%"},
      {"molecule": "Cn1c(=O)c2sccc2n2c(CCCC(=O)NC3CCCCC3)nnc12", "survival": "inactive: 77%"},
      {"molecule": "Cc1ccc(-n2nc(C)c3c(C)cc(=O)n(CC(=O)NC(C)c4ccccc4)c32)cc1", "note": "(stereo not given)", "survival": "inactive: 100%"},
      {"molecule": "COc1ccc(S(=O)(=O)N(CC(=O)Nc2cc(Cl)ccc2C)Cc2ccccc2)cc1OC", "survival": "inactive: 73%"},
      {"molecule": "CCOc1ccc(S(=O)(=O)Nc2cc3c(C(=O)OC)c(COC)oc3c3ccccc23)cc1", "survival": "inactive: 61%"},
      {"molecule": "CCN1CCN(c2ccc(N=Cc3cccc(C)c3O)cc2)CC1", "survival": "inactive: 97%"},
      {"molecule": "CCOc1cc(-c2ccc(OC(=O)c3ccc(OC)cc3)c(OC)c2)cc(=O)c2c(C)oc(C)c12", "survival": "active: 41%"},
      {"molecule": "CCOC(=O)CC(NC(=O)CCc1c(C)nc2c(c1C)c(=O)n(C)c(=O)n2C)c1ccc(OCC)c(OC)c1", "note": "(stereo not given)", "survival": "inactive: 105%"},
      {"molecule": "CC(=O)Nc1ccc(NC(=O)C(Cc2ccccc2)NS(=O)(=O)c2ccc3c(c2)oc(=O)n3C)cc1", "note": "(stereo not given)", "survival": "inactive: 90%"},
      {"molecule": "CC(C)c1ccc(NS(=O)(=O)c2ccc3[nH]cc(C(=O)NCCc4ccccc4)c(=O)c3c2)cc1", "survival": "inactive: 73%"},
      {"molecule": "CCCCN(CC)CCNC(=O)C1CCCN(c2ncnc3onc(C)c23)C1", "note": "(stereo not given)", "survival": "inactive: 85%"},
      {"molecule": "COc1cc(Cl)c(NS(=O)(=O)c2cc(-c3cc(C)no3)ccc2OC)c(OC)c1", "survival": "inactive: 80%"},
      {"molecule": "CCOc1ccccc1NC(=O)C1CCN(S(=O)(=O)c2ccc3c(c2)CCCN3C(C)=O)CC1", "survival": "inactive: 75%"},
      {"molecule": "Cc1ccc(COC(=O)c2[nH]c3c(c2C)C(=O)CC(c2ccc(N(C)C)cc2)C3)cc1", "note": "(stereo not given)", "survival": "inactive: 77%"},
      {"molecule": "COc1ccc2nc(SC)c(C#N)cc2c1", "survival": "inactive: 82%"},
      {"molecule": "CCS(=O)(=O)c1ncc(Cl)c(C(=O)Nc2ccccc2)n1", "survival": "inactive: 52%"},
      {"molecule": "CC(=O)c1ccc(NC(=O)c2ccc(-n3cnnc3)cc2)cc1", "survival": "inactive: 65%"},
      {"molecule": "CCC(=O)N1c2ccccc2CC1C(=O)NCc1ccc(N(C)C)cc1", "note": "(stereo not given)", "survival": "inactive: 74%"},
      {"molecule": "CC(C)C(=O)N(c1nnc(-c2ccncc2)s1)C(C)C", "survival": "inactive: 95%"},
      {"molecule": "Cc1ccc(N=C2NC(=O)CC(C(=O)Nc3cc(C(F)(F)F)ccc3Cl)S2)cc1", "note": "(stereo not given)", "survival": "inactive: 69%"},
      {"molecule": "Cc1ccc(N(CC(=O)Nc2cc(C)ccc2C)S(=O)(=O)c2c(C)noc2C)cc1", "survival": "inactive: 62%"},
      {"molecule": "CCN(CC)c1nc2c(c(=O)n(Cc3ccccc3)c(=O)n2C)n1Cc1ccccc1", "survival": "inactive: 93%"},
      {"molecule": "Cc1ccc(C(=O)NCCc2ccc(S(N)(=O)=O)cc2)cc1-n1cnc2cccnc21", "survival": "inactive: 90%"},
      {"molecule": "Cc1cccc(C(=O)n2nc(-c3cccnc3)nc2NCc2ccccc2)c1", "survival": "inactive: 94%"},
      {"molecule": "CCn1cc(C(=O)NCCCOC)c(=O)c2cc(S(=O)(=O)N3CCCC3)ccc21", "survival": "inactive: 92%"},
      {"molecule": "Cc1ccc(NC(=O)Nc2ccccc2OCc2cc(=O)n3ccccc3n2)c(Cl)c1", "survival": "inactive: 73%"},
      {"molecule": "COC(=O)c1c(NC(=O)Cc2coc3ccc(C(C)C)cc23)sc2c1CCC2", "survival": "inactive: 102%"},
      {"molecule": "CCOc1ccc(C(=O)c2oc3ccccc3c2NC(=O)c2cc(-c3ccc(Cl)cc3)on2)cc1", "survival": "inactive: 95%"},
      {"molecule": "COc1ccc(-c2nnc(SCC(=O)N(C)C3CCCCC3)o2)cc1OC", "survival": "inactive: 86%"},
      {"molecule": "O=c1oc2c3c(ccc2c2ccccc12)OCN(Cc1ccccc1Cl)C3", "survival": "inactive: 68%"},
      {"molecule": "CN(Cc1ccccc1)c1ncnc2c1nnn2C", "survival": "inactive: 72%"},
      {"molecule": "O=S(=O)(NCC(c1ccco1)S(=O)(=O)c1cccs1)c1ccc(Cl)cc1", "note": "(stereo not given)", "survival": "inactive: 92%"},
      {"molecule": "CCCn1c(=N)n(CC(=O)C(C)(C)C)c2ccccc21", "survival": "inactive: 91%"},
      {"molecule": "COC(=O)c1sccc1S(=O)(=O)N(CC(=O)Nc1ccccc1F)c1ccccc1", "survival": "inactive: 70%"},
      {"molecule": "CCc1nn(CC(=O)N(C)Cc2ccccc2)c(=O)c2cc3sccc3n12", "survival": "inactive: 113%"},
      {"molecule": "CC(=O)c1cccc(NS(=O)(=O)c2cc(-c3cnc(C4CC4)o3)ccc2C)c1", "survival": "inactive: 97%"},
      {"molecule": "Cc1ccc(CSCCC(=O)NCc2ccc(F)cc2Cl)cc1", "survival": "inactive: 118%"},
      {"molecule": "CCn1nc(C)c(CCN(C)C(=O)Nc2cc(Cl)ccc2C)c1C", "survival": "inactive: 85%"},
      {"molecule": "COc1ccc(CNC(=O)C(c2cccs2)N(Cc2cccs2)C(=O)Cc2cccs2)cc1", "note": "(stereo not given)", "survival": "inactive: 80%"},
      {"molecule": "CCNC(=O)Cc1ccc(NC(=O)N2CCCCc3ccccc32)cc1", "survival": "inactive: 74%"},
      {"molecule": "CCN(CC)c1nn2c(=O)c(C(=O)NCc3ccc(F)cc3)cnc2s1", "survival": "inactive: 92%"},
      {"molecule": "CCCn1c2ccccc2c2cnn(CC(=O)NCCc3ccc(OC)cc3OC)c(=O)c21", "survival": "inactive: 88%"},
      {"molecule": "Cc1nc(-c2ccccc2)sc1CCNS(=O)(=O)c1ccc(Br)cc1", "survival": "inactive: 119%"},
      {"molecule": "COc1ccccc1CCNC(=O)C(=O)NCC(c1ccco1)S(=O)(=O)c1ccc(C)cc1", "note": "(stereo not given)", "survival": "inactive: 126%"},
      {"molecule": "O=C(O)CSc1ccc(Oc2ccc(SCC(=O)O)cc2)cc1", "survival": "inactive: 102%"},
      {"molecule": "Cc1cc(C)c(S(=O)(=O)NCC(c2cccs2)S(=O)(=O)c2ccccc2)c(C)c1", "note": "(stereo not given)", "survival": "inactive: 144%"}
    ]}
  ]
}
